Biological target: CD33 Db-FM (fluorescein-maleimide-labelled anti-CD33 diabody, clone SGN-33) (fluorescein-5-maleimide on the engineered C-terminal cysteine (added after the hexahistidine tag))
Assay: FACS; apparent Kd, on MOLM14-CD117high cells

B1: CD33 on human AML cells (Kasumi-1, HL-60, MOLM14) (receptor)
chain: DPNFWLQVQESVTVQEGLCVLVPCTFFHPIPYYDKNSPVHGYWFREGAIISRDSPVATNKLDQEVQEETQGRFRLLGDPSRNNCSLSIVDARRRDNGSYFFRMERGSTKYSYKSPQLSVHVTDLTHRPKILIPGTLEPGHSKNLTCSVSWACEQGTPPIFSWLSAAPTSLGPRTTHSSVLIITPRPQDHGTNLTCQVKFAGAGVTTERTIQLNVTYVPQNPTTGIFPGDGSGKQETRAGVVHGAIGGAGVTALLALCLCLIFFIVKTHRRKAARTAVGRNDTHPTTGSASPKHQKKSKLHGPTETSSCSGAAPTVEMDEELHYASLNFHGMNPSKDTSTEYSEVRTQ
For B1, the Kd was 0.44 nM.

Source: paper PMC11588662 (2024)
